The chains are these.
T1: UNK ZnF1-3 (human, UniProt Q9C0B0 31-174)
T1 sequence: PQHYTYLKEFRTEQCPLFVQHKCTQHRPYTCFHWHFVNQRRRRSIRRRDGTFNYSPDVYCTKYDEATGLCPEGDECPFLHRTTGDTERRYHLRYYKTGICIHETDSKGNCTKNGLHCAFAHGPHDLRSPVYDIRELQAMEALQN

B1: chr13:97419678:97419679:-_ENSMUSG00000021670_ENSMUST00000022176|mus_hu|FALSE|FALSE (ssRNA)
RNA: GGGAGUUCUACAGUCCGACGAUCUUUUAUUACAACAUAUACAGAUUUGAUACAGUUUACAAAAAAAACUAGAUUUUUCAACUAAAUAAAAAUGUCUUUUAAGCAAUUAAAGUUGGCUUAGAGACAUGGUAUUUUUCUUUCAAACAACAGAGGAUUGAGCAUCA
B2: chr1:39494564:39494565:+_ENSG00000168653_ENST00000372967|hu_hu|hu_hu_hu_mus_True|78_78 (ssRNA)
RNA: GGGAGUUCUACAGUCCGACGAUCAUGCAUUCGCCUCAUCGUUUUGUACCGAAGCAAACACUCUACGAAGUCAUCGAACUCUAUCUUGCACUCCUUUUUCGCCCGGGUCCCACCGAUCCCGUGUGCACACUCUAUCCACUCUUUCAACAGAGGAUUGAGCAUCA
B3: chr14:103931940:103931941:+_ENSG00000075413_ENST00000216288|hu_hu|FALSE|FALSE (ssRNA)
RNA: GGGAGUUCUACAGUCCGACGAUCACAAAACGUGUCGAGUUUACCGCCAACAGUAAAUUCAUUGCUAAAACCGAAAUCUGCUAUUUUAAUGUUCAUAUCGGCAUCUAACAAUAGAUUUUCAGCCUUGAGGUCUCGAUGUACGAUCAACAGAGGAUUGAGCAUCA
B4: chr10:5788261:5788262:+_ENSG00000108021_ENST00000328090|hu_hu|motif|central (ssRNA)
RNA: GGGAGUUCUACAGUCCGACGAUCGUAAGUCCUGGUGAAUGUGGCUUGAGUAACAGUGCCACUGUAAGAAGCCACUCUUGUGCGGUCCAGUGGCUGAACAAUUUCUUCUUCACUAGGAACAGAAGGUCCAUUAGUUUGUGUACUCAACAGAGGAUUGAGCAUCA
B5: chr5:143849297:143849298:-_ENSMUSG00000045078_ENSMUST00000053498|mus_mus|motif|central (ssRNA)
RNA: GGGAGUUCUACAGUCCGACGAUCUACAUUCAAAUCAUAGUAAUUUUUCAAAUGAAUUAUUUCUUCAACAUAUCCACUUGCGGCAUCUGGAAAUCUUGCUUCCGUUUCUUUCACUAACAGUGGAAUGAGGUCUUGAUCUACCUCCAACAGAGGAUUGAGCAUCA
B6: chr12:84935825:84935826:-_ENSMUSG00000042628_ENSMUST00000048319|mus_mus|FALSE|FALSE (ssRNA)
RNA: GGGAGUUCUACAGUCCGACGAUCUCCCACUGCAUGCAUAACUCUCCUGGCACAUGAGCCCCGGAUUUAGGCCCUUCUCUGCUAGGGAAGUCUGGGCACUCAUAACUUAGACUCGUUUGGAAACCACCCACCCUGCAACAGUCACAACAGAGGAUUGAGCAUCA
B7: chr11:77340908:77340909:-_ENSG00000074201_ENST00000525064|hu_hu|hu_hu_hu_mus_True|48_48 (ssRNA)
RNA: GGGAGUUCUACAGUCCGACGAUCGUUUGGAUCCCUGGACACCGCAUGUAAACUAAUGGUGGGGUAUUCCAGUGAGAAUCCUAAUCCAGAGCCAUCUAACCAGGACAGGCGGCUCUCCGCGAUGUAAAGCGUGCCGGUGCCGAGCAACAGAGGAUUGAGCAUCA
B8: chr10:33214929:33214930:-_ENSG00000150093_ENST00000302278|hu_hu|hu_hu_hu_mus_True|8_88 (ssRNA)
RNA: GGGAGUUCUACAGUCCGACGAUCAACAAGUUCAUUGAAAAACUCUCCUUUAUUAGUAAGACUAAGCACAUUUUUGUAGCUAAAUGGGCUGGUGCAGUUUUGUUCACUUGUACAAGGAUUUCUUAGCUUAGCUGGUGUUGUGCUCAACAGAGGAUUGAGCAUCA
B9: chr12:105536279:105536280:+_ENSG00000136051_ENST00000332180|hu_mus|hu_hu_hu_mus_True|48_78 (ssRNA)
RNA: GGGAGUUCUACAGUCCGACGAUCAGCACUGAACAUGUAAUGUAAUCUGGCUGCAUCAACAGCAUUUUCAUAUACAUCAUCUAAAUAAAUUGGGAAGACAGCGCGAUGCCAGUAUAAAAAACAGCAGUCACACUGUGCUUGGACCAACAGAGGAUUGAGCAUCA
B10: chr8:92086081:92086082:+_ENSG00000155100_ENST00000285420|hu_mus|FALSE|FALSE (ssRNA)
RNA: GGGAGUUCUACAGUCCGACGAUCAAUCCGAGGUGGUUGAUUCUCAAGUACCAAGUUUGAAAUGUUAACAGCAACAGAAUCUAUCUUACUGUCCUUGAAAGUCAAUUGCUUCAAUUGCUCCAGUUCUUCCCUGUGUUUUUGCUCCAACAGAGGAUUGAGCAUCA
B11: chr11:18503389:18503390:-_ENSG00000074319_ENST00000251968|hu_hu|hu_hu_hu_mus_True|18_48 (ssRNA)
RNA: GGGAGUUCUACAGUCCGACGAUCAUUUUCCAUUUUCUCCAGAGCAGAACUUAGUUCUUCAUCCUUCUUUUUCAAAAGUUCUAUGUUUUUAUCAACCUCAGCUACUUCUUGAUCUAAACGGGUAACCAUCUCUUCCAGUUUCUGCAACAGAGGAUUGAGCAUCA
B12: 100888057_100888680_723_3pUTR_ENSMUSG00000019302_ENSMUST00000044721|mouse|control|control (ssRNA)
RNA: GGGAGUUCUACAGUCCGACGAUCGAUUUCAGCUUGUCUCAGGAACACAUUCCCUCGGCACACUCGCCAAAGCAUGCGCUCAAAGGUCGGGAUCCGCUCCCGGUUAAUCACACCAGCCACAAAGCCAAGUCGUAAGGGUGCGCCCAACAGAGGAUUGAGCAUCA
B13: chr5:128448638:128448639:+_ENSG00000066583_ENST00000173527|hu_mus|hu_hu_hu_mus_False|28_58 (ssRNA)
RNA: GGGAGUUCUACAGUCCGACGAUCGGCACUCGCCUUAAUUAGGUUCUGAAUUUCCUUGAACUUCGGGUGGUCUUUGUCAGCUACCAGCUGUAGGAGGACAGCCUCACUCGUGGUCACGAUGAUCCCAGUGCGGGCAAGACGCUCCAACAGAGGAUUGAGCAUCA
B14: chr7:148047826:148047827:+_ENSMUSG00000025485_ENSMUST00000026558|mus_mus|FALSE|FALSE (ssRNA)
RNA: GGGAGUUCUACAGUCCGACGAUCCCCCAUGGGUUGGAUGACUCUGUGCCUGGAGAGCUUGUCAAACAUGUUCACUAGCUUCAUGGCCUCAUGUUCCUUCUGCUCCUCUGUCAUGCCUUCCAUAGGAUUAGGCGGCUUCUCCUCCAACAGAGGAUUGAGCAUCA
B15: chr1:29344824:29344825:+_ENSG00000159023_ENST00000356093|hu_mus|FALSE|FALSE (ssRNA)
RNA: GGGAGUUCUACAGUCCGACGAUCCAUGCCGUGCAGUUCUGGGUCAUAGUCUCCCAGCUCAGACUGGAUCGUGUAAGACCCGAGUAGGGCUAAAGUUGCAAAGGAACAGGGCAGACGUCCAGCAACAAUGUCCUGCCGAAGCUGCAACAGAGGAUUGAGCAUCA
B16: chr4:11166509:11166510:-_ENSMUSG00000040738_ENSMUST00000108319|mus_hu|motif|central (ssRNA)
RNA: GGGAGUUCUACAGUCCGACGAUCGUUGAGAUGUACUAUCAGAAGAAGGUACAAGAACAUCACAUGCUUGACAAUAGCCAGCGGACCGCUUCUCAUCUAUGGUACAAUGAAGAGAUAAUGAACCUAUCUCUGCAAUUAGUUCUUCAACAGAGGAUUGAGCAUCA
B17: chr15:81824118:81824119:-_ENSMUSG00000022472_ENSMUST00000152227|mus_mus|FALSE|FALSE (ssRNA)
RNA: GGGAGUUCUACAGUCCGACGAUCGAAGGGAACCUUAAGGUCCCUCUGGAAUCUGGAGUCUAGAUCAUAGACUUCUAGGCUAUUGCUGCCCAUGAAAUCCUAGCAGCAUAUCAUUAAGAAAACGCCCACUCACACCCCAACCACCAACAGAGGAUUGAGCAUCA
B18: chr8:104447970:104447971:+_ENSG00000164934_ENST00000297579|hu_hu|hu_hu_hu_mus_False|1_78 (ssRNA)
RNA: GGGAGUUCUACAGUCCGACGAUCAUACACUUCCCUGCUUCGGCUCUUGUCCACAGGAAAGAUUCGAAUAGACUUAUCAAAGCUGGCAGACACAAAUUCCUUCCCAGUGGGAGAGUAGUCCACAUCAAGUACUGCAGAUACAUGCAACAGAGGAUUGAGCAUCA
B19: chr14:55515796:55515797:+_ENSMUSG00000022194_ENSMUST00000116476|mus_mus|motif|central (ssRNA)
RNA: GGGAGUUCUACAGUCCGACGAUCGAACAGGGACUCAUCUAAGGCCAGGGACGUCCUCACUGACUCUUUGUCCGAGAACUCGGUAUAUGCAAACCCUUUGGGAUGGCCACUAAAUUUGUCACAGAGUAUAGUAACACGGUUGACCAACAGAGGAUUGAGCAUCA
B20: 55621432_55625267_2122_CDS_ENSG00000126787_ENST00000247191|human|control|control (ssRNA)
RNA: GGGAGUUCUACAGUCCGACGAUCGCCCAUCUCAUUUCUACUCUGAGAUACAGCUUUGUUGACAGACUUAGGUGUUCCAAGUCUUUGAGAAGGGCCUUCAGAAGAGACAGAAAGUCCUGAGAAUAAUUUAACAGGACUUUCAACCAACAGAGGAUUGAGCAUCA
B21: chr8:74527950:74527951:-_ENSG00000040341_ENST00000355780|hu_hu|motif|central (ssRNA)
RNA: GGGAGUUCUACAGUCCGACGAUCUUCUUUAAUAACCUCAAAACUGACAGGCAUAUUUCGCUUCAGAGCAAUUUCAAACACGGAGCUGAUCUCAGACUUAUUUGCAUCUUUGUCAUCAUCCACAUCCUUUCCUGAUUCACCAUUCAACAGAGGAUUGAGCAUCA
B22: chr17:46298169:46298170:+_ENSMUSG00000023952_ENSMUST00000024748|mus_mus|FALSE|FALSE (ssRNA)
RNA: GGGAGUUCUACAGUCCGACGAUCUUUACCUCCUCUGUUCCUUCCGUUCUUCUUCUUCCCCUUUGGGCCCCCGCAACUGCUGCUACCGCCGGCCCCCCGAGCUUUGAGGUUUCCACCCAUGGCCGGGCCUCCUCCGGGCCGGCACAACAGAGGAUUGAGCAUCA

The list shows a part of the results.

The assay has as its target T1, UNK ZnF1-3. Briefly: nsRBNS (natural sequence RNA bind-n-seq); RBNS binding buffer (assumed for nsRBNS): 25 mM Tris pH 7.5, 150 mM KCl, 3 mM MgCl2, 0.01% Triton X-100, 500 ug/ml BSA, 20 U/ml SUPERase-In, 4 C; UNK is unkempt and MSI1 is Musashi-1; names of the RNAs are library labels; protein concentration not given here; high values mean tight binding.
Molecule B1 gave a binding signal of 0.964 enrichment R.

In the case of B2, the binding signal was 0.73 enrichment R.

B3 came in with a binding signal of 0.552 enrichment R.

B4 returned a binding signal of 0.711 enrichment R.

On to B5, for which the binding signal was 0.594 enrichment R.

Regarding B6, the binding signal turned out to be 1.07 enrichment R.

Turning to B7, the binding signal was 0.885 enrichment R.

B8 registered a binding signal of 0.765 enrichment R.

For B9, the binding signal is 2.74 enrichment R.

B10 had a binding signal of 1.05 enrichment R.

The molecule B11 showed a binding signal of 0.546 enrichment R.

B12 yielded a binding signal of 0.818 enrichment R.

In the case of B13, the binding signal worked out at 0.991 enrichment R.

For B14, the binding signal came to 0.718 enrichment R.

Molecule B15 had a binding signal of 0.677 enrichment R.

As to B16, the binding signal worked out at 1.27 enrichment R.

In turn, B17 registered a binding signal of 0.917 enrichment R.

B18 yielded a binding signal of 0.906 enrichment R.

The molecule B19 registered a binding signal of 1.56 enrichment R.

Regarding B20, the binding signal is 0.488 enrichment R.

Molecule B21 had a binding signal of 1.19 enrichment R.

Molecule B22 gave a binding signal of 0.851 enrichment R.

The values are drawn from PMC12136788.
